Laboratory results reported in the supplement of paper PMC10369915.
The other results are listed elsewhere or left out. Rule as the data show it: active = 3.2 or more and inactive = the rest. The signal is at background level for most entries.

These binders were tested against SHP2 C-SH2 domain E139D (assay: enrichment score (SH2-bound / input frequency) (ratio); bacterial display of known human phosphotyrosine sites (pTyr-Var adds point mutants) read by sequencing; higher = stronger binding; tyrosines were phosphorylated by kinases first). Conditions: peptide library: pTyr-Var.
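Also: displayed peptides selected on beads carrying the immobilized SH2 domain, with library peptides lacking any tyrosine serving as negative controls.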

Enrichment score, inactive:
ARMTNYGLPRF [TSPAN12_Y138_YF] 0.858, TFLRTYTDTMQ [TSPAN7_Y124_A127T] 0.841, DAMQTYNGNDE [TSPAN7_Y131] 0.375, LGKGSYAKVKS [TSSK2_Y23] 0.935, RGKEPYTKKAL [TTC21B_Y160] 0.568, ESSKAYERALS [TTC37_Y1074] 0.555, SLESAYPEGSQ [TTF1_Y357] 0.486, EHLNRYINDTF [TTLL10_Y446_S448N] 1.32, LHAALYKRKLL [TTLL5_Y542_E543K] 0.516, AEVIWYKGDEV [TTN_Y13423_E13428V] 0.905, ANVKWYRSGRE [TTN_Y13783_N13785S] 0.239, VHVEVYDRPSP [TTN_Y16422] 0.806, ANNEFYFRVCA [TTN_Y18998_YF] 0.625, IKETHYMVDRC [TTN_Y19087] 0.777, IKETHYMVDKC [TTN_Y19087_R19091K] 0.928, AKIDGYITSYR [TTN_Y19760] 0.943, GYITSYREEEQ [TTN_Y19764] 0.833, GYIISYREEEQ [TTN_Y19764_T19762I] 0.879, VRSTEYPCAGL [TTN_Y20078] 0.77

What follows are binders tested against SHP2 C-SH2 domain wild-type in the same assay as above. Conditions: peptide library: pTyr-Var.

Enrichment score, inactive:
ARMTNYGLPRF [TSPAN12_Y138_YF] 0.837, TFLRTYTDTMQ [TSPAN7_Y124_A127T] 0.728, DAMQTYNGNDE [TSPAN7_Y131] 0.393, LGKGSYAKVKS [TSSK2_Y23] 0.856, RGKEPYTKKAL [TTC21B_Y160] 0.61, ESSKAYERALS [TTC37_Y1074] 0.684, SLESAYPEGSQ [TTF1_Y357] 0.499, EHLNRYINDTF [TTLL10_Y446_S448N] 1.15, LHAALYKRKLL [TTLL5_Y542_E543K] 0.526, AEVIWYKGDEV [TTN_Y13423_E13428V] 1.24, ANVKWYRSGRE [TTN_Y13783_N13785S] 0.25, VHVEVYDRPSP [TTN_Y16422] 0.874, ANNEFYFRVCA [TTN_Y18998_YF] 0.864, IKETHYMVDRC [TTN_Y19087] 0.919, IKETHYMVDKC [TTN_Y19087_R19091K] 0.725, AKIDGYITSYR [TTN_Y19760] 0.883, GYITSYREEEQ [TTN_Y19764] 0.783, GYIISYREEEQ [TTN_Y19764_T19762I] 0.62, VRSTEYPCAGL [TTN_Y20078] 0.66

These binders were tested against SHP2 N-SH2 domain L43F in the same assay as above. Conditions: peptide library: pTyr-Var.

Enrichment score, inactive:
ARMTNYGLPRF [TSPAN12_Y138_YF] 0.707, TFLRTYTDTMQ [TSPAN7_Y124_A127T] 2.78, DAMQTYNGNDE [TSPAN7_Y131] 0.377, LGKGSYAKVKS [TSSK2_Y23] 0.715, RGKEPYTKKAL [TTC21B_Y160] 0.588, ESSKAYERALS [TTC37_Y1074] 0.537, SLESAYPEGSQ [TTF1_Y357] 0.549, EHLNRYINDTF [TTLL10_Y446_S448N] 1.34, LHAALYKRKLL [TTLL5_Y542_E543K] 0.434, AEVIWYKGDEV [TTN_Y13423_E13428V] 1.08, ANVKWYRSGRE [TTN_Y13783_N13785S] 0.21, VHVEVYDRPSP [TTN_Y16422] 0.742, ANNEFYFRVCA [TTN_Y18998_YF] 0.692, IKETHYMVDRC [TTN_Y19087] 0.849, IKETHYMVDKC [TTN_Y19087_R19091K] 0.82, AKIDGYITSYR [TTN_Y19760] 1.03, GYITSYREEEQ [TTN_Y19764] 0.837, GYIISYREEEQ [TTN_Y19764_T19762I] 0.543, VRSTEYPCAGL [TTN_Y20078] 0.687

These binders were tested against SHP2 N-SH2 domain T42A in the same assay as above. Conditions: peptide library: pTyr-Var.

Enrichment score, inactive:
ARMTNYGLPRF [TSPAN12_Y138_YF] 0.701, TFLRTYTDTMQ [TSPAN7_Y124_A127T] 1.03, DAMQTYNGNDE [TSPAN7_Y131] 0.452, LGKGSYAKVKS [TSSK2_Y23] 0.679, RGKEPYTKKAL [TTC21B_Y160] 0.494, ESSKAYERALS [TTC37_Y1074] 0.46, SLESAYPEGSQ [TTF1_Y357] 0.492, EHLNRYINDTF [TTLL10_Y446_S448N] 1.15, LHAALYKRKLL [TTLL5_Y542_E543K] 0.379, AEVIWYKGDEV [TTN_Y13423_E13428V] 1.19, ANVKWYRSGRE [TTN_Y13783_N13785S] 0.228, VHVEVYDRPSP [TTN_Y16422] 0.78, ANNEFYFRVCA [TTN_Y18998_YF] 0.573, IKETHYMVDRC [TTN_Y19087] 0.805, IKETHYMVDKC [TTN_Y19087_R19091K] 0.698, AKIDGYITSYR [TTN_Y19760] 0.949, GYITSYREEEQ [TTN_Y19764] 0.633, GYIISYREEEQ [TTN_Y19764_T19762I] 0.707, VRSTEYPCAGL [TTN_Y20078] 0.559

Each binder was assayed against SHP2 N-SH2 domain T52S in the same assay as above. Conditions: peptide library: pTyr-Var.

Enrichment score, inactive:
ARMTNYGLPRF [TSPAN12_Y138_YF] 0.681, TFLRTYTDTMQ [TSPAN7_Y124_A127T] 2.79, DAMQTYNGNDE [TSPAN7_Y131] 0.509, LGKGSYAKVKS [TSSK2_Y23] 0.704, RGKEPYTKKAL [TTC21B_Y160] 0.577, ESSKAYERALS [TTC37_Y1074] 0.576, SLESAYPEGSQ [TTF1_Y357] 0.515, EHLNRYINDTF [TTLL10_Y446_S448N] 1.18, LHAALYKRKLL [TTLL5_Y542_E543K] 0.831, AEVIWYKGDEV [TTN_Y13423_E13428V] 0.889, ANVKWYRSGRE [TTN_Y13783_N13785S] 0.232, VHVEVYDRPSP [TTN_Y16422] 0.871, ANNEFYFRVCA [TTN_Y18998_YF] 0.556, IKETHYMVDRC [TTN_Y19087] 0.8, IKETHYMVDKC [TTN_Y19087_R19091K] 0.623, AKIDGYITSYR [TTN_Y19760] 0.837, GYITSYREEEQ [TTN_Y19764] 0.831, GYIISYREEEQ [TTN_Y19764_T19762I] 0.704, VRSTEYPCAGL [TTN_Y20078] 0.668

The binders below were run against SHP2 N-SH2 domain wild-type in the same assay as above. Conditions: peptide library: pTyr-Var.

Enrichment score, inactive:
ARMTNYGLPRF [TSPAN12_Y138_YF] 0.628, TFLRTYTDTMQ [TSPAN7_Y124_A127T] 0.908, DAMQTYNGNDE [TSPAN7_Y131] 0.505, LGKGSYAKVKS [TSSK2_Y23] 0.626, RGKEPYTKKAL [TTC21B_Y160] 0.694, ESSKAYERALS [TTC37_Y1074] 0.552, SLESAYPEGSQ [TTF1_Y357] 0.534, EHLNRYINDTF [TTLL10_Y446_S448N] 1.51, LHAALYKRKLL [TTLL5_Y542_E543K] 0.578, AEVIWYKGDEV [TTN_Y13423_E13428V] 1.07, ANVKWYRSGRE [TTN_Y13783_N13785S] 0.194, VHVEVYDRPSP [TTN_Y16422] 1, ANNEFYFRVCA [TTN_Y18998_YF] 0.964, IKETHYMVDRC [TTN_Y19087] 0.872, IKETHYMVDKC [TTN_Y19087_R19091K] 0.912, AKIDGYITSYR [TTN_Y19760] 1.08, GYITSYREEEQ [TTN_Y19764] 0.847, GYIISYREEEQ [TTN_Y19764_T19762I] 0.721, VRSTEYPCAGL [TTN_Y20078] 0.725
